Data reported in PubChem BioAssay AID1347071 (National Center for Advancing Translational Sciences (NCATS), 2019).
Screen size: about 410,000 compounds; about 260 (0.063%) were called active. The inconclusive results got no clear call from the source; some entries with a clear call stand among them for comparison. The call rests on the fitted dose curve; in most records, active means well fitted activation curve with a large enough effect; inconclusive means small, poorly fitted or top-dose-only effect; inactive means no such curve, though single readings can be large or run the other way. No potency is given beside an inconclusive call; the fits are too rough.

test: qHTS for compounds that reverse cellular toxicity of Amyloid beta (A-beta) peptide in yeast: Primary Screen; conditions: yeast expressing A-beta42, growth rescue, OD600, 48 h; growth rescue: at 46.1 µM (top of the series), 0% DMSO, 100% iron-clioquinol control; further: nearly all actives have a fitted effect of over 55% in size
In short: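 Yeast A-beta toxicity model in growth medium with pinned compounds, 48 h at 30 C; growth read as absorbance at 600 nm. Normalized to FeCl3/clioquinol equimolar mix (positive) and DMSO (negative).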
Potency means the concentration at half of the fitted maximal effect; tags describe the fitted curve by direction and shape.

Row | SMILES | Potency | growth rescue
1 | CC(=O)Nc1ccc(S(=O)(=O)NC(CC(=O)NC2CCCCC2C)C(C)C)cc1 (stereo not drawn) | inconclusive [activator, partial curve] | –
2 | CC(NC(C(=O)c1ccccc1)c1ccccc1)c1ccccc1 (stereo not drawn) | inconclusive [activator, partial curve, poor fit] | –
3 | Cc1onc(-c2ccccc2Cl)c1C(=O)c1ccccc1 | inconclusive [activator, partial curve] | –
4 | COc1ccc(NS(=O)(=O)c2cc(NC(=O)c3ccco3)ccc2N2CCCCC2)cc1 | inconclusive [activator, full curve, poor fit] | –
5 | CCc1ccc(NC(=S)N2CCCC2)cc1 | inconclusive [activator, single point] | –
6 | O=C(CCSCc1cccc(Cl)c1)NCCc1ccc(Cl)cc1 | inactive | –
7 | O=C(CN1CCN(S(=O)(=O)c2ccc(Br)cc2)CC1)Nc1ccc2c(c1)OCO2 | inconclusive [activator, full curve, poor fit] | –
8 | Cc1ccc(-c2nc3c4c(-c5ccccc5)c(-c5ccccc5)oc4ncn3n2)cc1 | – | inactive: -9.17%
9 | O=c1cc(-c2ccccc2)n(S(=O)(=O)c2ccc3ccccc3c2)o1 | – | inactive: -26.7%
10 | CC(=O)c1cccc(NC(=O)c2c(F)c(F)c(F)c(F)c2F)c1 | inconclusive [activator, single point] | –
11 | CCOc1cccc(C(=O)Nc2ccc3c(c2)OCCO3)c1 | inconclusive [activator, full curve, poor fit] | –
12 | Cc1ccc2nc(-c3ccccn3)c(Nc3ccccc3C)n2c1 | inconclusive [activator, single point] | –
13 | CC(C)(C)n1cn[nH]c1=S | inconclusive [activator, single point] | –
14 | Oc1cc2c(cc1C(c1ccc(Br)cc1)N1CCCC1)OCO2 (stereo not drawn) | inconclusive [activator, single point] | –
15 | COc1ccc(/C=C/C(=O)Nc2ccc(C(N)=O)cc2)cc1OC | inconclusive [activator, single point] | –
16 | CCN1CCN(CC(=O)c2ccc(OC)cc2)CC1 | inconclusive [activator, partial curve, poor fit] | –
17 | O=C(Nc1ccc(Cl)cc1)C1CCN(C(=O)c2cccs2)CC1 | – | inactive: 3.91%
18 | CC1=NN(C(N)=S)C(=O)C1N=Nc1ccc(F)cc1 (stereo not drawn) | inconclusive [activator, full curve, poor fit] | –
19 | CCOC(=O)c1c(-c2ccccc2)csc1NC(=O)CCN1CCOCC1 | – | inactive: -26.9%
20 | CCC(C(=O)OCC(=O)Nc1ccc(SC(F)F)cc1)c1ccccc1 (stereo not drawn) | inconclusive [activator, single point] | –
21 | COC(=O)[C@H](CC(C)C)NC(=O)NC1CCCc2ccccc21 (stereo partly drawn) | inconclusive [activator, full curve] | –
22 | Cc1c(C(=O)N2CCN(c3ccc(C(F)(F)F)cn3)CC2)oc2ccccc12 | inconclusive [activator, single point] | –

Row | SMILES | Potency | growth rescue
23 | Cc1nn(C)c(Sc2ccccc2N)c1[N+](=O)[O-] | inconclusive [activator, single point] | –
24 | C(=N\N1CCN(c2ccccn2)CC1)/C1=C(N2CCOCC2)C(=C/c2ccccc2)/CC1 | inconclusive [activator, partial curve, poor fit] | –
25 | N/C(Cc1ccc([N+](=O)[O-])cc1)=N\OC(=O)COc1ccc2ccccc2c1 | inconclusive [activator, full curve] | –
26 | COCCCNC(=S)N/N=C/c1ccc(OC)cc1 | inconclusive [activator, partial curve] | –
27 | O=C(Nc1nc(-c2ccccn2)cs1)C1CC1 | inconclusive [activator, single point] | –
28 | COc1cccc(C(O)c2nc(-c3ccc(N(C)C)cc3)cs2)c1 (stereo not drawn) | – | inactive: 26.8%
29 | Cc1ccc(CNS(=O)(=O)c2cc(C(=O)Nc3ccc(C(C)C)cc3)ccc2F)cc1 | inconclusive [activator, partial curve] | –
30 | CCN(Cc1nc2cc(Cl)ccc2c(=O)[nH]1)C(=O)c1ccc(C)c(NC(=O)c2ccco2)c1 | inconclusive [activator, partial curve, poor fit] | –
31 | S=C(NCCc1ccccc1)Nc1ccccc1N1CCOCC1 | inconclusive [activator, single point] | –
32 | O=c1[nH]cnc2cc(-c3ccc(Br)cc3)sc12 | – | inactive: -23%
33 | CC(=O)Oc1c(Cl)c(N2CCOCC2)c(OC(C)=O)c2ccccc12 | – | inactive: -13.4%
34 | COC(=O)c1ccc(-c2ccco2)n1Cc1ccccc1Cl | – | inactive: 7.45%
35 | CCOc1ccc(CCN2C(=S)N([C@@H](CC(C)C)CN3CCCC3CN3C(=S)NC[C@@H]3Cc3ccccc3)C[C@@H]2CC(C)C)cc1 (stereo partly drawn) | inconclusive [activator, single point] | –
36 | CCN(CC)S(=O)(=O)c1cccc(NC(=O)COC(=O)c2cc(C)oc2C)c1 | inconclusive [activator, partial curve, poor fit] | –
37 | CCN(c1ccccc1)S(=O)(=O)c1cccc(C(=O)N(C)CC(=O)Nc2ccc(F)c(F)c2F)c1 | inconclusive [activator, partial curve, poor fit] | –
38 | COc1ccccc1N1CCN(C(=S)Nc2cccc(C)c2)CC1 | inconclusive [activator, single point] | –
39 | Cc1ccc(C)c(NC(=O)CN2CCN(C3CCCCC3)C(=O)C2=O)c1 | – | inactive: -9.16%
40 | COc1ccc2c(CCNC(=O)Nc3ccccc3)c[nH]c2c1 | inconclusive [activator, single point] | –
41 | CCOC(=O)c1ccc(NC(=S)NN)cc1 | inconclusive [activator, single point] | –
42 | Cc1ccc(Cl)cc1NC(=O)COC(=O)C1CCCCC1 | inconclusive [activator, partial curve, poor fit] | –
43 | O=C(Nc1ccc(N2CCOCC2)cc1Cl)C1CCN(C(=O)OCc2ccccc2)CC1 | active: 10 µM | –
